Data reported in PubChem BioAssay AID686970 (National Center for Advancing Translational Sciences (NCATS), 2013).
Hit rate of the full screen: of about 360,000 compounds, about 6,000 (1.7%) were called active. This list was built around the results that the source calls inconclusive (neither active nor inactive); the mix of calls is not that of the screen. Calls come from the whole dose curve; as a rule, active = well fitted cell-killing curve with a large enough effect; inconclusive = small, poorly fitted or top-dose-only effect, or effect the other way; inactive = flat fitted curve, though single readings scatter. No potency is given beside an inconclusive call; the fits are too rough.

experiment: qHTS for induction of synthetic lethality in tumor cells producing 2HG: qHTS for the HT-1080-NT fibrosarcoma cell line; settings: HT-1080-NT fibrosarcoma viability, CellTiter-Glo ATP luminescence, 48 h; activity, negative = less viability: at 46.1 µM (top of the series) unless noted;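 note: NT is the 2HG producing partner of a matched IDH1 knockdown line; nearly all actives have a fitted effect of over 55% in size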;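 for activity, negative = less viability: 0% = DMSO-treated cells and -100% = media-only wells without cells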
Outline: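 Viability by CellTiter-Glo luminescence after 48 h compound exposure at 37C of HT-1080-NT cells (750/well, RPMI, 5% FBS). % activity scaled between DMSO wells and medium-only wells, then curve-fitted and categorized by curve class.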
Potency is the fitted concentration of half-maximal effect; tags give direction and shape of the fitted curve.

SMILES | Potency | activity, negative = less viability
CCOC(=O)c1cccc(-n2c(C)nc3ccccc3c2=O)c1 | inactive | –
COc1ccc2c(c1)OC[C@H]1[C@H]2N2C(=O)CN(C)C(=O)[C@@]2(C)[C@H]1c1ccccc1 | inconclusive [rising, single point] | –
CCN1CCCC1CNC(=O)c1csc2c1CCCC2 (configuration not stated) | inconclusive [cytotoxic, partial curve, poor fit] | –
CCCCC[C@H](C)N1C[C@H](COCc2ccccc2)Oc2cc(N3CC[C@@H](N(C)C)C3)ccc2S1(=O)=O | active: 20.6 µM | –
COc1ccc(-c2ccc(N3C(c4ccsc4)=Cc4ccc(F)cc4C3c3c[nH]c4ccccc34)cc2)cc1 (configuration not stated) | inconclusive [cytotoxic, single point] | –
O=C(Nc1ccc(Cl)cc1)/C(=C/c1cccc(O)c1)c1nc2ccccc2s1 | active: 4.61 µM | –
CC(=O)N(C)c1ccc(NC(=O)Nc2ccccc2C)cc1 | – | inconclusive: -10.8% [cytotoxic]
O=C(c1ccncc1)c1ccc(N2CCN(C3CC(=O)N(Cc4cccs4)C3=O)CC2)cc1 (configuration not stated) | active: 11.6 µM | –
CN(C)c1ccnc(Nc2ccccc2)c1C#N | inactive | –
CN1c2ccccc2C(O)=C(C(=S)Nc2ccc(Cl)cc2)S1(=O)=O | inconclusive [cytotoxic, single point] | –
COc1ccc(-c2nn(-c3ccccc3)cc2C(=O)Nc2cccc(S(=O)(=O)NC3=NCCC3)c2)cc1 | inconclusive [cytotoxic, single point] | –
CC(C)(C)NC(=O)Cn1nnc(-c2ccc(OCc3c(F)cccc3Cl)cc2)n1 | inconclusive [cytotoxic, single point] | –
CCOc1ccc(CCNC(=O)c2[nH]c(C)c(C(C)=O)c2CC)cc1OCC | inconclusive [cytotoxic, single point] | –
CN(C(=O)COc1ccc(-c2nnco2)cc1)C1CCS(=O)(=O)C1 (configuration not stated) | inactive | –
COc1ccc(-c2nsc3c(N4CCCC4)ncnc23)cc1 | inconclusive [rising, partial curve, poor fit] | –
COc1ccc(-c2cc(C(=O)Nc3sc4c(c3C#N)CCCC4)c3ccccc3n2)cc1 | inactive | –
COc1ccc([C@H]2CC(=O)C=C(c3cc4ccccc4s3)C2)cc1OC | inconclusive [cytotoxic, single point] | –
O=S(=O)(Nc1cccc2cccnc12)c1ccc(S(=O)(=O)N2CCCC2)cc1 | active: 2 µM | –
Cc1cccc(C(=O)N2CCC(=O)N([C@H](COCc3cccc(C(F)(F)F)c3)Cc3ccccc3)CC2)c1 | inconclusive [cytotoxic, single point] | –
CCOC(=O)c1c(C)oc2c1c(CN1CCN(CCO)CC1)c(O)c1ccccc12 | inconclusive [cytotoxic, single point] | –
CCOC(=O)c1c(C)cc2c(CO)n[nH]c(=O)c2c1C | inactive | –
COCCN(C(=O)CSc1nncn1-c1ccccc1)c1c(N)n(Cc2ccccc2)c(=O)[nH]c1=O | inconclusive [rising, partial curve] | –
CC1(C)Cc2c(sc3[nH]c(=S)n(Cc4ccccc4)c(=O)c23)CO1 | inconclusive [cytotoxic, single point] | –
CCC1=Nc2cc(C(=O)NCc3ccco3)ccc2Sc2ccc(Cl)cc21 | active: 5.17 µM | –

SMILES | Potency | activity, negative = less viability
CN(C)CCCNc1cn[nH]c(=O)c1Cl | inactive | –
CC(C)C[C@H]1CNC(=S)N1C[C@H]1CCCN1C[C@H](Cc1ccccc1)N1C[C@H](Cc2ccc(O)cc2)N(CCc2ccccc2)C1=S | inconclusive [cytotoxic, single point] | –
COc1ccc(CC(=O)Nc2nc(-c3ccc(OC)c(OC)c3)cs2)cc1OC | inconclusive [cytotoxic, single point] | –
CC(=O)OCc1ccc(C2=CC(=O)CC(C)(C)C2=O)cc1 | inactive | –
Cc1ccc(NC(=S)N(CCCN2CCOCC2)Cc2cccnc2)cc1C | inactive | –
CCOc1ccc(CCNC(=O)c2c(C)nn(-c3ccccc3)c2Cl)cc1OCC | inactive | –
CCOC(=O)N1CC=C2C(C#N)=C(N)C(C#N)(C#N)[C@H](c3ccccc3OCC)[C@H]2C1 | inconclusive [cytotoxic, single point] | –
COCCN1C(=O)CCC1(C)C(=O)NC(C)(C)C (configuration not stated) | – | inconclusive: 30.3%
O=C(Nc1ccccc1C(=O)NC1CCCC1)NC1CCCC1 | inactive | –
Cc1noc(C)c1COc1cccc(C(=O)NCCc2c[nH]c3ccccc23)c1 | inconclusive [cytotoxic, partial curve] | –
O=C(Nc1ccc(F)c(Cl)c1)c1cc(-c2ccco2)on1 | inactive | –
Cc1cccc(NC(=O)c2ccc(S(=O)(=O)N3CCCCC3)cc2)c1 | inactive | –
Cc1c(O)ccc(/C=N/Nc2ncccc2[N+](=O)[O-])c1O | inconclusive [cytotoxic, partial curve, poor fit] | –
COc1ccc(CC(NC(C)=O)C(=O)NC2CCN(C(=O)C3CC3)CC2)cc1OC (configuration not stated) | inactive | –
FC(F)Oc1ccc(NC(=S)NC23CC4CC(CC(C4)C2)C3)cc1 | inconclusive [cytotoxic, single point] | –
CCCOC(=O)C(=O)NNc1ccccc1 | active: 3.66 µM | –
C=CCNC(=S)N1N=C(c2ccco2)CC1c1ccco1 (configuration not stated) | inactive | –
Cc1cc(C)cc(NC(=O)Cn2nnc(C(=O)NCc3cccs3)c2N)c1 | inconclusive [cytotoxic, single point] | –
CN(CC(=O)Nc1ccc(Cl)cc1)CC(=O)Nc1ccc(F)c(F)c1F | inconclusive [cytotoxic, single point] | –
Cc1cccc(-c2nc(CN3CCCC(C(=O)NC4CCCCCC4)C3)c(C)o2)c1 (configuration not stated) | active: 20 µM | –
Cc1oc2cc3oc(=O)c(CCC(=O)NCCCn4ccnc4)c(C)c3cc2c1C | inactive | –
Nc1nc(=O)n(C2CC(O)C(CO)O2)cc1Cl (configuration not stated) | inconclusive [rising, single point] | –
O=C(O)c1ccc2c(c1)C(=O)N(c1cccc(C(=O)/C=C/c3ccccc3)c1)C2=O | inconclusive [cytotoxic, single point] | –
CC1=C(C(=O)N2CCOCC2)CC(CC(=O)NCCc2ccccn2)C(=O)N1CCC1=CCCCC1 (configuration not stated) | inactive | –

SMILES | Potency | activity, negative = less viability
COc1ccc(-c2nc3c(C)cc(Br)cn3c2CC2CCCCC2)cc1OC | inconclusive [cytotoxic, single point] | –
COc1ccc(-c2cc(C(F)(F)F)nc(NCc3cccnc3)n2)cc1 | inconclusive [cytotoxic, single point] | –
CC(C)=CCc1c(O)cc(O)c2c(=O)c3c(CC=C(C)C)c(O)ccc3oc12 | inconclusive [cytotoxic, single point] | –
CN1CCN(C(=S)SCC(=O)Nc2nc(-c3ccccc3)c(-c3ccccc3)o2)CC1 | inactive | –
CC(C)C[C@H]1CN([C@@H](Cc2ccccc2)CN2CCC[C@@H]2CN2C(=O)C(=O)NC[C@@H]2Cc2ccc(O)cc2)C(=O)C(=O)N1CC1CCCCCC1 | inconclusive [cytotoxic, single point] | –
COCC1CCN(C(=O)c2cc(COc3ccc(F)cc3F)on2)C1 (configuration not stated) | inactive | –
COc1cc(NS(=O)(=O)c2ccc(C)cc2)c2ncccc2c1 | inactive | –
O=C(Nc1ccc(Oc2cccnc2)cc1)C1CCN(Cc2cc(Cl)ccc2O)CC1 | inconclusive [cytotoxic, single point] | –
c1ccc(-c2cn(-c3ccccc3)c3ncnc(NCCCN4CCOCC4)c23)cc1 | inconclusive [cytotoxic, single point] | –
CC(Cc1cccs1)NC(=S)Nc1ccc(Cl)cc1 (configuration not stated) | inconclusive [cytotoxic, single point] | –
CCc1ccccc1NC(=S)NCc1cccn1C | inconclusive [rising, full curve, poor fit] | –
CC(C)CC(=O)NCCc1ccncc1 | inactive | –
CCOC(=O)c1nnc(-c2ccccc2)nc1Oc1ccccc1Cl | inconclusive [cytotoxic, single point] | –
Nc1cc2c(cc1[N+](=O)[O-])-c1ccccc1C2=NO | inactive | –
CN1/C(=C\C(=O)C[n+]2ccc3ccccc3c2)C(C)(C)c2ccccc21 | inconclusive [cytotoxic, full curve, poor fit] | –
CC1(C(=O)NS(=O)(=O)C2CC2)CCCN(C(=O)c2ccc3c(c2)OCO3)C1 (configuration not stated) | inconclusive [rising, partial curve] | –
CCCCN(CC)Cc1ccc(CNC(=S)Nc2ccc(C)cc2Cl)o1 | inconclusive [cytotoxic, single point] | –
CC1=NN(c2ccccc2)C(=O)/C1=C/C=C/c1ccccc1 | active: 3.26 µM | –
O=C(CCCl)Nc1cc(SCCO)cc([N+](=O)[O-])c1 | inactive | –
COc1cc(C)c(Cl)c(C)c1S(=O)(=O)NC1CC(C)(C)NC(C)(C)C1 | inconclusive [cytotoxic, single point] | –
CCCSc1nc2cc(OC)c(OC)cc2c(=N)n1CCCN1CCOCC1 | active: 14.6 µM | –
CCC1CCCCN1Cc1nc2c(c(=O)n(C)c(=O)n2C)n1CC(C)C (configuration not stated) | inactive | –
CC1(C)CC(=O)C(C(O)c2ccccc2)C(C)(C)N1 (configuration not stated) | inactive | –
COCCn1c(C)cc(C2=NNC(=Nc3ccc(OC)cc3)SC2)c1C | inconclusive [cytotoxic, full curve, poor fit] | –
